This passage reports Ki results from patent publication US6838475B2, “Imidazolidinones as NS3-serine protease inhibitors of hepatitis C virus” (Schering Corporation, priority 2000, dated 2005).

pKi: −log10 of the molar value.

What is called pKi is the Ki on a negative log10 scale, so that one unit is a factor of ten.

One test deals with HCV NS3/NS4A protease (strain 1a) (Hepatitis C virus genotype 1a, UniProt P27958). Put plainly: biochemical.
Details: not given
How it is done: Spectronhotometric Assay: Spectrophotometric assay for the HCV serine protease was performed on the inventive compounds by following the procedure described by R. Zhang et al., Analytical Biochemistry, 270 (1999) 268-275, the disclosure of which is incorporated herein by reference. The assay based on the proteolysis of chromogenic ester substrates is suitable for the continuous monitoring of HCV NS3 protease activity. The substrates were derived from the P side of the NS5A—NS5B junction sequence (Ac-DTEDVVX(Nva) (SEQ ID NO: 1), where X=A or P) whose C-terminal carboxyl groups were esterified with one of four different chromophoric alcohols (3- or 4-nitrophenol, 7-hydroxy-4-methyl-coumarin, or 4-phenylazophenol).
Protein concentrations were determined by the Biorad dye method using recombinant HCV protease standards previously quantified by amino acid analysis. Prior to assay initiation, the enzyme storage buffer (50 mM sodium phosphate pH 8.0, 300 mM NaCl, 10% glycerol, 0.05% lauryl maltoside and 10 mM DTT) was exchanged for the assay buffer (25 mM MOPS pH 6.5, 300 mM NaCl, 10% glycerol, 0.05% lauryl maltoside, 5 μM EDTA and 5 μM DTT) utilizing a Biorad Bio-Spin P-6 prepacked column.
Protease Assay: HCV protease assays were performed at 30° C. using a 200 μl reaction mix in a 96-well microtiter plate. Assay buffer conditions (25 mM MOPS pH 6.5, 300 mM NaCl, 10% glycerol, 0.05% lauryl maltoside, 5 μM EDTA and 5 μM DTT) were optimized for the NS3/NS4A heterodimer (D. L. Sali et al, ibid.)). […] Fifty μls of prewarmed protease (12 nM, 30° C.) in assay buffer, was then used to initiate the reaction (final volume 200 μl).The plates were monitored over the length of the assay (60 minutes) for change in absorbance at the appropriate wavelength (340 nm for 3-Np and HMC, 370 nm for PAP, and 400 nm for 4-Np) using a Spectromax Plus microtiter plate reader equipped with a monochrometer (acceptable results can be obtained with plate readers that utilize cutoff filters). Proteolytic cleavage of the ester linkage between the Nva and the chromophore was monitored at the appropriate wavelength against a no enzyme blank as a control for non-enzymatic hydrolysis. The evaluation of substrate kinetic parameters was performed over a 30-fold substrate concentration range (˜6-200 μM). Initial velocities were determined using linear regression and kinetic constants were obtained by fitting the data to the Michaelis-Menten equation using non-linear regression analysis (Mac Curve Fit 1.1, K. Raner). Turnover numbers (kcat) were calculated assuming the enzyme was fully active.
Evaluation of Inhibitors and Inactivators: The inhibition constants (Kj) for the competitive inhibitors Ac-D-(D-Gla)-L-I-(Cha)-C-OH (27) (SEQ ID NO: 2), Ac-DTEDVVA(Nva)-OH (SEQ ID NO: 3) and Ac-DTEDVVP(Nva)-OH (SEQ ID NO: 4) were determined experimentally at fixed concentrations of enzyme and substrate by plotting vo/vi vs. inhibitor concentration ([I]o) according to the rearranged Michaelis-Menten equation for competitive inhibition kinetics: vo/vi=1[I]o/(Ki(1+[S]o/Km)), where vo is the uninhibited initial velocity, vi is the initial velocity in the presence of inhibitor at any given inhibitor concentration ([I]o) and [S]o is the substrate concentration used. The resulting data were fitted using linear regression and the resulting slope, 1/(Ki(1[S]o/Km), was used to calculate the Ki* value.
Take `C=CCNC(=O)C(=O)C(CCC)NC(=O)C1CN(CC(=O)OCC)C(=O)N1C(=O)C(NC(=O)C(NC(=O)C(CCC(=O)O)NC(=O)C(CCC(=O)O)NC(C)=O)C(C)C)C(C)C` (stereo not drawn) [Example 5]: the negative logarithm of the Ki (pKi) was 4.30 to 6.00.

`CCCC(NC(=O)C1CN(Cc2ccc(OC)cc2)C(=O)N1C(=O)C(NC(=O)C(NC(C)=O)C(C)C)C1CCCCC1)C(=O)C(=O)NCC(=O)NC(C(=O)O)c1ccccc1` (stereo not drawn) [Example 56]: the pKi was 6.00 to 9.00.

On to `C=CCNC(=O)C(=O)C(CCC)NC(=O)C1CN(CC(=O)OCC)C(=O)N1C(=O)C(NC(=O)C(NC(=O)OCC(C)C)C(C)C)C(C)C` (stereo not drawn) [Example 8], for which the negative-log Ki (pKi) was less than 4.30.

On to `C=CCNC(=O)C(=O)C(CCC)NC(=O)C1CNC(=O)N1C(=O)C(NC(=O)C(NC(=O)C(CCC(=O)O)NC(=O)C(CCC(=O)O)NC(C)=O)C(C)C)C(C)C` (stereo not drawn) [Example 12], for which the pKi was 4.30 to 6.00.

`C=CCNC(=O)C(=O)C(CCC)NC(=O)C1CN(Cc2ccccc2)C(=O)N1C(=O)C(NC(=O)C(NC(=O)C(CCC(=O)O)NC(=O)C(CCC(=O)O)NC(C)=O)C(C)C)C(C)C` (stereo not drawn) [Example 18]: the negative-log Ki (pKi) is 6.00 to 9.00.

Consider `CCCC(NC(=O)C1CN(Cc2ccccc2)C(=O)N1C(=O)C(NC(=O)C(NC(C)=O)C(C)C)C1CCCCC1)C(=O)C(=O)NCC(=O)NC(C(=O)O)c1ccccc1` (stereo not drawn) [Example 49], for which the pKi was 6.00 to 9.00.

For the compound `C=CCNC(=O)C(=O)C(CCC)NC(=O)C1CN(Cc2ccccc2)C(=O)N1C(=O)C(NC(=O)C(NC(=O)C(CCC(=O)OC(C)(C)C)NC(=O)C(CCC(=O)OC(C)(C)C)NC(C)=O)C(C)C)C(C)C` (stereo not drawn) [Example 17], the negative logarithm of the Ki (pKi) is less than 4.30.

`C=CCNC(=O)C(=O)C(CCC)NC(=O)C1CN(Cc2ccccc2)C(=O)N1C(=O)C(NC(=O)C(NC(=O)OC(C)(C)C)C(C)C)C(C)C` (stereo not drawn) [Example 15]: the negative-log Ki (pKi) is less than 4.30.

Consider `CCCC(NC(=O)C1CN(Cc2ccc(C)c(C)c2)C(=O)N1C(=O)C(NC(=O)C(NC(C)=O)C(C)C)C1CCCCC1)C(=O)C(=O)NCC(=O)NC(C(=O)O)c1ccccc1` (stereo not drawn) [Example 51], for which the pKi was 6.00 to 9.00.

As to `CCCC(NC(=O)C1CN(Cc2cccc(OC)c2)C(=O)N1C(=O)C(NC(=O)C(NC(C)=O)C(C)C)C1CCCCC1)C(=O)C(=O)NCC(=O)NC(C(=O)O)c1ccccc1` (stereo not drawn) [Example 55], the pKi is 6.00 to 9.00.

With `C=CCOC(=O)CNC(=O)C(=O)C(CCC)NC(=O)C1CN(Cc2ccccc2)C(=O)N1C(=O)C(NC(=O)C(NC(=O)C(CCC(=O)O)NC(=O)C(CCC(=O)O)NC(C)=O)C(C)C)C(C)C` (stereo not drawn) [Example 23], the negative-log Ki (pKi) was 6.00 to 9.00.

Take `CCCC(NC(=O)C1CN(Cc2ccc(C)cc2)C(=O)N1C(=O)C(NC(=O)C(NC(C)=O)C(C)C)C1CCCCC1)C(=O)C(=O)NCC(=O)NC(C(=O)O)c1ccccc1` (stereo not drawn) [Example 54]: the negative-log Ki (pKi) is 6.00 to 9.00.

The same test, now with this note: recombinant heterodimeric NS3/NS4A, chromogenic ester substrates, 30° C., pH 6.5; ranges of Ki* values; read-out: Ki*.
On to `CCCC(NC(=O)C1CN(Cc2ccc(Br)cc2)C(=O)N1C(=O)C(NC(=O)OC(C)(C)C)C1CCCCC1)C(=O)C(=O)NCC(=O)N[C@H](C(=O)O)c1ccccc1` (stereo partly drawn) [Example 40], for which the pKi was less than 4.30.

Consider `CCCC(NC(=O)C1CN(Cc2ccc(Br)cc2)C(=O)N1C(=O)C(NC(=O)OCC(C)C)C1CCCCC1)C(=O)C(=O)NCC(=O)N[C@H](C(=O)O)c1ccccc1` (stereo partly drawn) [Example 44], for which the negative logarithm of the Ki (pKi) is less than 4.30.

As for `CCCC(NC(=O)C1CN(Cc2ccc(Cl)c(Cl)c2)C(=O)N1C(=O)C(NC(=O)OC(C)(C)C)C1CCCCC1)C(=O)C(=O)NCC(=O)N[C@H](C(N)=O)c1ccccc1` (stereo partly drawn) [Example 30], the negative-log Ki (pKi) is 4.30 to 6.00.

For the compound `C=CCNC(=O)C(=O)C(CCC)NC(=O)[C@@H]1CN(CCCC(=O)OCC)C(=O)N1C(=O)OCc1ccccc1` (stereo partly drawn) [Example 2], the negative logarithm of the Ki (pKi) is less than 4.30.

As for `CCCC(NC(=O)C1CN(Cc2ccc(Cl)c(Cl)c2)C(=O)N1C(=O)C(NC(=O)OCC(C)C)C1CCCCC1)C(=O)C(=O)NCC(=O)N[C@H](C(N)=O)c1ccccc1` (stereo partly drawn) [Example 35], the pKi is less than 4.30.

In the case of `C=CCOC(=O)CNC(=O)C(=O)C(CCC)NC(=O)C1CN(Cc2ccccc2)C(=O)N1C(=O)C(N)C(C)C` (stereo not drawn) [Example 20], the pKi was less than 4.30.

For the compound `C=CCOC(=O)CNC(=O)C(=O)C(CCC)NC(=O)C1CN(Cc2ccccc2)C(=O)N1C(=O)C(NC(=O)OC(C)(C)C)C(C)C` (stereo not drawn) [Example 19], the pKi is less than 4.30.

Regarding `CCCC(NC(=O)C1CN(Cc2ccc(Cl)cc2)C(=O)N1C(=O)C(NC(=O)OCC(C)C)C1CCCCC1)C(=O)C(=O)NCC(=O)N[C@H](C(=O)O)c1ccccc1` (stereo partly drawn) [Example 46], the pKi is less than 4.30.

Take `C=CCNC(=O)C(=O)C(CCC)NC(=O)C1CN(CC(=O)OCC)C(=O)N1C(=O)C(NC(=O)OC(C)(C)C)C(C)C` (stereo not drawn) [Example 3]: the negative logarithm of the Ki (pKi) was less than 4.30.
